# Data as given in the supplement of paper PMC3334620.
# The full ranking holds about 33,000 sequences; the median of “E-score (-0.5 to 0.5)” is about -0.021, and the highest 2% start at about 0.32. This is one part of the list.
# Target: T1, Zap1 (UniProt P47043)
# T1 sequence: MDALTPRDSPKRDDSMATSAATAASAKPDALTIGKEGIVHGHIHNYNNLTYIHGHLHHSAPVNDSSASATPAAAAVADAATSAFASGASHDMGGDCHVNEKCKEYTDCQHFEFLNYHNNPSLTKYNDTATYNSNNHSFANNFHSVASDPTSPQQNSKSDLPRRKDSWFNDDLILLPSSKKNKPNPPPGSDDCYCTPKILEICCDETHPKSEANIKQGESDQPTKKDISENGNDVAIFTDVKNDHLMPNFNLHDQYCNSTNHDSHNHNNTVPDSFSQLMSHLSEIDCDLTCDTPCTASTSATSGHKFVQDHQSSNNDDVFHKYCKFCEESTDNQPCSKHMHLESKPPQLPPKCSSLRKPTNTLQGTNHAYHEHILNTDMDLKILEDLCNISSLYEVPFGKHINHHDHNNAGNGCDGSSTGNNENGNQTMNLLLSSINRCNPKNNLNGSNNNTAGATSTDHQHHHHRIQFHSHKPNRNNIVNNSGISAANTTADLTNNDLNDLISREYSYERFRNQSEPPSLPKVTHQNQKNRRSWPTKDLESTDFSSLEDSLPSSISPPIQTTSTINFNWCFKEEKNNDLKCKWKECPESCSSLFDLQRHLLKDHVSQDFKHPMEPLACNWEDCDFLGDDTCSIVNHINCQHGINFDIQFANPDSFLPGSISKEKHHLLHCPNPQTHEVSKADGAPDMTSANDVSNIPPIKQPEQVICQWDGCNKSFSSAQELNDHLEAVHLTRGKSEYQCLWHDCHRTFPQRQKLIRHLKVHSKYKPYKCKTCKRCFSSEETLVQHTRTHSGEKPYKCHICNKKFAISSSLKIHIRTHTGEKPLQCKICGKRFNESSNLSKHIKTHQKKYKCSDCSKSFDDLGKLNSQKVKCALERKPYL
# Assay: PBM E-score (8-mer binding enrichment) (E-score (-0.5 to 0.5)); higher = stronger / more preferred TF binding; most listed sequences are background and not binding sites
# Conditions: protein concentration: 200 nM; construct: GST-full length
# Procedure, shortened: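 PURExpress in vitro transcription/translation supplied GST-tagged yeast transcription factors, either full-length or DNA-binding domain. Applied at about 100-200 nM to universal all-10-mer Agilent arrays double-stranded by primer extension, the bound protein was detected with fluorescent anti-GST. E-scores, modified Wilcoxon-Mann-Whitney statistics, were given by the Universal PBM Analysis Suite to ungapped eight-base words pooled with their reverse complements after masliner normalisation.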
row,Sequence,PBM E-score
1,CCATTACA,0.158
2,ATCCCGCA,-0.0968
3,CCTATGCG,0.0463
4,AACCGTCG,0.0382
5,CATCGTGC,-0.063
6,AAAAGCGA,-0.0413
7,GTCCTTGA,0.113
8,CTAACTGC,-0.167
9,CGCAGAGC,-0.298
10,ATGCCCCC,-0.279
11,AACCCCCC,-0.236
12,GCATCTTA,-0.0867
13,ACCTACAG,0.181
14,CTCCGTGA,-0.0721
15,AATGGTAG,0.176
16,GACCACAA,0.185
17,GTCGCTGA,0.0402
18,CCAATTAC,0.103
19,CATCAAGG,0.0235
20,GTACTAAC,0.256
21,ACATACAG,-0.0104
22,GAGACTAC,-0.0857
23,CCGAAAAC,0.226
24,AAGACTGA,-0.123
25,AAATGCTG,0.0958

row,Sequence,PBM E-score
1,AGCGATGG,-0.195
2,CTCAGTAA,-0.0366
3,CTGGCCGC,-0.0223
4,GAATAAGA,-0.0964
5,CTTGGTGA,0.0553
6,AATTAAGC,0.0649
7,CCTGAGTA,0.052
8,CCGGAAGG,0.208
9,ACGTTGAG,-0.0801
10,AAGCCAAA,-0.144
11,CTTTAACC,0.405
12,AACTATGC,-0.0166
13,ATAAACTG,0.154
14,CATAGCCC,-0.312
15,TAGAATAA,0.202
16,CATCTGGC,-0.183
17,AAATTATA,0.202
18,CATTTCGA,-0.0786
19,CTGGAATC,-0.174
20,TCATTGAA,-0.0668
21,GAGCGGGA,-0.122
22,CACAGGCC,-0.0122
23,GGGCACAC,-0.104
24,ACCGGCGA,0.0478
25,ATAAGCAC,-0.00953

row,Sequence,PBM E-score
1,TACTGACA,0.163
2,CATATAGG,0.0645
3,CTCTATAA,0.00505
4,ACTGTGAT,-0.0423
5,AAACTATC,0.109
6,GGCCAATA,-0.0986
7,CTGGGTGC,-0.134
8,ACATCATC,-0.176
9,CGATTCCG,-0.225
10,CTCGTAGA,-0.224
11,AGCTTACA,0.027
12,TAGCGGCA,-0.204
13,GGGAGGAA,-0.255
14,GAAGTGGA,0.00769
15,AAACCAGC,0.184
16,GGAGTATA,-0.0931
17,CCGGACAA,-0.00924
18,AACGCGGC,0.1
19,TCCGGCGA,-0.224
20,GACCTCCA,0.109
21,GTGATCGA,0.186
22,CGGTCTTC,0.204
23,GGAAAGCC,-0.158
24,ATGAATGA,0.0161
25,CCCATGAG,0.0148

row,Sequence,PBM E-score
1,GTCCCTTA,0.0953
2,TGGTGCAA,0.0118
3,ATTGGCCA,-0.021
4,GAGAGCTA,-0.305
5,AACGACGA,-0.0964
6,ACCGTACA,0.155
7,GAAGATGA,0.0533
8,GTACGCCA,-0.104
9,CTGACTAC,-0.125
10,ACTAAACG,-0.0129
11,ATTGACCC,0.108
12,ACTCAACG,-0.059
13,ATAGGTGG,-0.0764
14,ACTTAAGG,0.145
15,ACGGCGCT,-0.198
16,CTGATAGC,-0.121
17,CATTCCGA,-0.0183
18,GGCTCATA,-0.0731
19,TACGACGA,-0.0483
20,GGGGCCCA,0.0748
21,CAAATCAG,0.00535
22,ACCCCAAA,0.337
23,CCTAAATA,0.0807
24,AGCACCTC,0.0338
25,AACAAGGG,0.174

row,Sequence,PBM E-score
1,ATATTTCA,0.0428
2,AAAATGGT,0.312
3,CGCATCAA,-0.0179
4,AAGATCTG,-0.0123
5,CTCCCAAA,-0.00366
6,AAACAAAC,0.135
7,TGTAGGAA,0.00394
8,ACATCCCT,-0.127
9,ATGTCCTA,-0.0727
10,AAATACCG,0.162
11,AAGAGCTG,-0.164
12,CACGTCCC,-0.16
13,AGGTTGAA,0.0804
14,CGCCACAG,-0.248
15,TTATAGAA,0.213
16,AGGCCCAA,-0.0071
17,AGCAGTCA,0.00094
18,CCTGTTTC,0.0289
19,CCGAAATA,0.185
20,ATTGAAAG,0.172
21,AAACCGTG,-0.0225
22,ACTTTTGG,0.225
23,TATCCATA,0.122
24,GCCGCATA,0.102
25,CCTGCAGC,-0.0448

row,Sequence,PBM E-score
1,CCGTTACA,0.061
2,TATCGGGA,0.00135
3,AAATAGAT,0.146
4,AGTTAGTG,0.123
5,TGCCAACA,-0.0561
6,GTGTGTAA,0.17
7,AGAACCAC,0.285
8,ACGATCGT,0.0702
9,GTGGGGAA,0.129
10,CCTCTTGA,0.148
11,GGCCTGTA,-0.164
12,CTGCGCAC,-0.0749
13,AAGGCCAT,0.103
14,GGTGTTAA,0.00917
15,GCCGGTCA,0.0353
16,CGAGTTAC,0.244
17,GCGAAACA,-0.0311
18,ACCATTGC,0.168
19,CTCAATTC,0.111
20,CTCACGAG,0.0376
21,AGAGGTTC,0.231
22,ATCATGCA,-0.0146
23,GGACGAAC,0.00463
24,CCGAATAC,0.112
25,AAATAATG,0.201

row,Sequence,PBM E-score
1,GCTAAGCA,-0.0537
2,ACCCTGGC,0.183
3,GTAAGATA,0.186
4,CGTTGTAA,0.0257
5,CACATTGA,-0.148
6,ATATGGTA,0.246
7,AACGTAGT,-0.0381
8,ATATACAA,0.211
9,GATCACAA,0.193
10,TATCAAAA,0.155
11,ACTACATC,-0.0446
12,CTCGTCAC,0.099
13,CAACTTTA,0.089
14,GAAACGGC,-0.0522
15,CCAAGCAC,0.0683
16,GCCCGAGA,0.124
17,GCATGGCA,-0.19
18,CACCGCAC,-0.033
19,GCGAAACC,0.139
20,CAGCTTGG,-0.0782
21,ACGGGTAA,0.178
22,CTAACCTC,0.305
23,GAGGCCCC,0.00365
24,AGGCCCAT,-0.0467
25,AAAGGAAC,0.226

row,Sequence,PBM E-score
1,TCTATAGA,-0.0406
2,GCGCCCAA,-0.0151
3,CCGAGAGC,-0.153
4,ATTAGCAA,0.198
5,ACCGCCGC,0.153
6,TATCGTAA,0.104
7,ACCGCGTC,0.0683
8,AAAAGCAG,-0.0944
9,GGTGATAC,-0.043
10,ATAAGGAC,-0.0167
11,CAACGGTA,-0.0672
12,ACACGTGC,-0.00761
13,CACAGCAG,0.101
14,ACGGGAGC,-0.278
15,CCAGATGA,-0.0669
16,TAGGTCCA,0.0558
17,TATCTTAA,0.126
18,ATTATCAC,0.157
19,AATACGTA,0.0801
20,GGGGGCGA,-0.284
21,CATGAACG,-0.0671
22,AGTCTCAC,-0.0356
23,CTGCGTAC,-0.0438
24,CTGGCACC,-0.119
25,CCCAAGCC,-0.242

row,Sequence,PBM E-score
1,CAGCCACA,0.0102
2,AATCGATT,0.128
3,ACCTGCGT,-0.00058
4,GGGTTGAA,0.166
5,ATCAGTCC,-0.463
6,CGCATACG,-0.12
7,CCTTAAGG,0.411
8,CGCTAGGA,-0.0207
9,AACCACAT,0.234
10,GAAGTAGC,-0.158
11,GATGGGGA,-0.184
12,GGCCTTTA,0.114
13,GTGGCCAA,0.112
14,GGGAATCA,-0.0643
15,CAAAGCCG,-0.0731
16,AAGGGACG,-0.0626
17,TAAAGGCA,0.0176
18,ACAAAAGT,0.214
19,CGAGTAGA,-0.179
